Test results as given in EP1410040B1 (Boehringer Ingelheim International GmbH, dated 2006).

Target: T1, p/CIP (UniProt O09000 1-1398, limits assumed, 35S-methionine labeled in the pull-down assay)
T1 construct: also called ACTR; AIB1
Experiment: GST pull-down, 35S-labeled in vitro translated coactivator

Binder | binding result
GST-STAT6 […] protein (other, also called GST-STAT6 ([…]); GST-STAT6 TAD) [about 200 residues not shown]SDLIEGRGIPEFDSSMSMQLGPDMVPQVYPPHSHSIPPYQGLSPEESVNVLSAFQEPHLQMPPSLGQMSLPFDQPHPQGLLPCQPQEHAVSSPDPLLCSDVTMVEDSCLSQPVTAFPQGTWIGEDIFPPLLPPTEQDLTKLLLEGQGESGGGSLGAQPLLQPSHYGQSGISMSHMDLRANPSW | no binding
GST (Glutathion S Transferase) alone (other, Control for the GST fusion proteins) not shown | no binding
